# Results published in PubChem BioAssay AID1346428 (National Center for Advancing Translational Sciences (NCATS), 2018).
# In all, about 48,000 compounds went through this assay and about 1,200 (2.5%) were called active. Another 2% or so got no clear call; they are omitted.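 Rule for the calls: active = activation of at least 60% and not above a set upper limit (about 1 call in 100 departs from these limits); inconclusive = activation of 40% to 60%, or above that upper limit; inactive = activation under 40%.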 This is one part of the list.
# Target: Probable G-protein coupled receptor 32 (Homo sapiens) (UniProt O75388)
# Assay: qHTS for Agonists of Human Resolvin D1 Receptor DRV1; note: 0% is about no effect
# Conditions: CHO-K1 GPR32 beta-arrestin PathHunter luminescence, 90 min; at 76.9 µM; stronger effect = higher value; zero percent set by DMSO-only wells
# Outline: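 GPR32 activation in stably transfected CHO-K1 cells, detected as beta-arrestin recruitment by enzyme-fragment complementation. Compound exposure: 90 min, 37 °C.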
# Sequence of UniProt O75388 (O75388 whole entry, looked up): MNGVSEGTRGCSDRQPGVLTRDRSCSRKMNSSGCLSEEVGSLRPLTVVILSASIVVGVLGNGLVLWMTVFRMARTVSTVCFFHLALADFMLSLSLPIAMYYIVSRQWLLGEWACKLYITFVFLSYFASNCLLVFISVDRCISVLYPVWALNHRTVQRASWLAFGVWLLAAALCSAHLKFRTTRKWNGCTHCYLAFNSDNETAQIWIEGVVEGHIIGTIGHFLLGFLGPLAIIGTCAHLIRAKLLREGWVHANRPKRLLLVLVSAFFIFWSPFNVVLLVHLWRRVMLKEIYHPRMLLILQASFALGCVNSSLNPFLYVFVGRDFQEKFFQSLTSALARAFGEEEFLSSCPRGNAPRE
row,SMILES,activation
1,C=C1C[C@@]23CC[C@H]4[C@@](C)(CCC[C@@]4(C)C(=O)O)[C@@H]2CC[C@]1(O)C3,inactive: -4.26%
2,CC(C)(Oc1ccc(Br)cc1)C(=O)Nc1cc(-c2nc3ccccc3[nH]2)ccc1Cl,inactive: 18.4%
3,CCc1c(C)nc2nncn2c1NCc1ccc(Cl)cc1,active: 65.7%
4,CNCc1ccccc1,inactive: -2.18%
5,Cc1ccc(NC(=O)Cn2nc(Cc3ccncc3)c3ccccc3c2=O)c(Cl)c1,inactive: -17.6%
6,CCOc1ccc(NC(=O)c2oc3ccccc3c2NC(=O)c2ccc(OC)cc2OC)cc1,inactive: -1.08%
7,COc1ccccc1CNC(=O)CN1N=C(c2ccccc2)CCC1=O,inactive: -20.3%
8,COc1cc(CNCCSc2nnnn2C)cc(Cl)c1OCc1ccccc1,active: 89%
9,COc1ccc(CNC(=O)CS(=O)Cc2nc(-c3cccc(C)c3)oc2C)cc1 (stereo not given),inactive: 4.05%
10,Fc1ccccc1N1CCN(c2nccn3nc(-c4ccc(Br)cc4)cc23)CC1,inactive: 6.38%
11,CCCCN(CC)CCNC(=O)c1cc2c(=O)n(CC)c3ccccc3c2s1,inactive: 11.3%
12,CCCCNc1nc2ccccc2c2nc(-c3ccccc3)nn12,inactive: 1.76%
13,Cc1ccc(S(=O)(=O)NCC2CCC(C(=O)NCCCOC(C)C)CC2)cc1 (stereo not given),inactive: -1.22%
14,Cc1nc(SCCOc2ccccc2F)[nH]c(=O)c1Cc1ccccc1,inactive: -10.5%
15,Cc1ccccc1NC(=O)c1oc2c(c1C)-c1nn(Cc3cccc(Cl)c3)cc1CC2,inactive: -6.39%
16,COc1ccc(CCNC(=O)c2ccc(Cn3c(=O)c4ccccc4n(CC(=O)C(C)(C)C)c3=O)cc2)cc1OC,inactive: -19.8%
17,COc1cc(NC(=O)CCn2nc(C)c(S(=O)(=O)N3CCCCC3)c2C)cc(OC)c1OC,inactive: -18.5%
18,Cc1ccccc1C(=O)N(Cc1sccc1C)C1CCS(=O)(=O)C1 (stereo not given),inactive: -9.44%
19,Cc1ccc(Cl)cc1NC(=O)CCCn1c(=O)c2cccn2c2cccnc21,inactive: -10.3%
20,COc1ccccc1NC(=O)C1=C(C)Nc2c(C(=O)Nc3cccc(C)c3)cnn2C1c1ccccc1Cl (stereo not given),inactive: -16.9%
21,CC1CCCCN1CCCNC(=O)CN1C(=O)c2cccnc2Oc2ccccc21 (stereo not given),inactive: -6.18%
22,COc1ccc(Cl)cc1NC(=O)c1c(NCc2cccnc2)sc2c1CCC(C)C2 (stereo not given),inactive: -7.15%
23,CCN1CCN(C(c2ccc(SC)cc2)c2c(O)cc(C)n(CCOC)c2=O)CC1 (stereo not given),inactive: -9.4%
24,CCCCN(CC)C(=O)C1CCCN(c2ncnc3onc(C)c23)C1 (stereo not given),inactive: 29.4%
25,COc1ccc(-c2nc3n(n2)C(c2ccc(OC)c(OC)c2)C(C(=O)Nc2cccnc2)=C(C)N3)cc1 (stereo not given),inactive: -6.8%
26,COCCCNC(=O)c1ccc(Cn2c(=O)c3ccccc3n(Cc3c(C)cc(C)cc3C)c2=O)cc1,inactive: 3.33%
27,CCOC(=O)c1ccc(CN(Cc2ccc(Br)cc2)S(=O)(=O)c2cccc(Cl)c2C)cc1,inactive: -9.41%
28,CCOC(=O)c1c(C)[nH]c(C)c1S(=O)(=O)NCC(=O)NCc1cccc(C)c1,inactive: -10.3%

row,SMILES,activation
1,O=c1cc(-c2ccc(F)cc2)nc(SCc2nc(-c3ccc(Cl)cc3)no2)[nH]1,inactive: -0.425%
2,COc1cc(C(=O)NCC(c2ccc(Cl)cc2)N2CCOCC2)cc(OC)c1OC (stereo not given),inactive: 1.97%
3,CCc1ccc(C2C(C(=O)Nc3ccccc3C)=C(C)Nc3nc(SCc4cccc(OC)c4)nn32)cc1 (stereo not given),inactive: 0.908%
4,CCOC(=O)CC(NC(=O)Cn1nnc(-c2ccccc2F)n1)c1ccccc1Cl (stereo not given),inactive: 3.95%
5,Cc1ccc(N2CCN(C(=O)c3cn(C)c4ccc(S(=O)(=O)N(C)C)cc4c3=O)CC2C)cc1 (stereo not given),inactive: -4.26%
6,CCS(=O)(=O)c1ncc(N(Cc2ccco2)Cc2ccccc2F)c(C(=O)Nc2cccc(Cl)c2)n1,inactive: -2.24%
7,O=C(Cn1c(=O)nc(-c2ccccc2)c2ccccc21)NCc1ccccc1Cl,inactive: -8.94%
8,CC(=O)c1ccc(NC(=O)CSc2nc(=O)n(Cc3ccncc3)c3c2CCC3)cc1,inactive: -2.5%
9,CCOc1ccccc1C(=O)Nc1cc2c(cc1N1CCOCC1)n(C)c(=O)n2C,inactive: -22%
10,Cc1ccc(CCNC(=O)c2ccc3c(c2)c(C)c(C)n3Cc2ccccc2)cc1,inactive: -19.7%
11,CCc1nc2c(cnn2-c2ccc(Cl)cc2)c(=O)n1-c1ccc(OC)c(Cl)c1,inactive: 8.45%
12,Cc1ccc(OCC(=O)Nc2cc(-c3cccc(C)c3)nn2-c2ccccc2)cc1,inactive: -20%
13,CCOc1ccc(N2CC(c3nc4ccccc4n3Cc3cccc(C)c3)CC2=O)cc1 (stereo not given),inactive: -24.2%
14,O=[N+]([O-])c1cc(-c2nc(-c3ccccc3)no2)ccc1NCCc1ccccc1,inactive: 5.81%
15,COc1ccc(-n2c(=O)c3sc4ccccc4c3n(CC(=O)NCc3ccccc3)c2=O)cc1,inactive: 8.42%
16,Cc1ccccc1CNC(=O)c1ccc(CS(=O)Cc2ccc(Cl)cc2)o1 (stereo not given),inactive: -26.4%
17,NC(=S)N/N=C/c1cccnc1,inactive: 29.1%
18,Cc1ccc2nc(N(Cc3cccnc3)C(=O)c3cccs3)sc2c1,inactive: -8.54%
19,CCCn1c(CCC(=O)Nc2cccc(CC)c2)nc2cccnc21,inactive: -10.7%
20,CCn1c(CC2C(=O)N(C)c3ccccc32)nc2ccccc2c1=O (stereo not given),inactive: -1.21%
21,COc1ccc(Cl)cc1NC(=O)CSc1nc(-c2ccccc2)c2ccccc2n1,inactive: -14.7%
22,O=C(Nc1cccc(F)c1)[C@@H](c1ccccc1)N1Cc2ccccc2C1=O,inactive: -7.51%
23,Cc1nn(C(C)(C)C)c(OC(=O)c2cccc(F)c2)c1Sc1ccccc1,inactive: 6.1%
24,CC(O)C(=O)O (stereo not given),inactive: 0.163%
25,CCCSc1nnc2n(-c3ccc(OC)cc3)c(=O)c3c4c(sc3n12)COC(C(C)C)C4 (stereo not given),inactive: 21%
26,CC(C)CC(C(=O)NCCc1ccccc1)N1Cc2ccccc2C1=O (stereo not given),inactive: -10%
27,CCc1ccc(NC(=O)CCCn2nc(C)c3c(C)n(-c4ccccc4)nc3c2=O)cc1,inactive: -5.04%
